# Values joined by “and” are separate entries in the source; they are usually repeats but may differ in a detail not shown here. Equal entries are not always repeated. Among all 360,000 compounds or so, about 25,000 (6.9%) were called active. Inconclusive results, whose numbers are uncertain, are shown with a selection of clear calls. The call rests on the fitted dose curve; in most records, active means well fitted inhibition curve with a large enough effect; inconclusive means small, poorly fitted or top-dose-only effect; inactive means flat fitted curve, though single readings scatter. A potency beside an inconclusive call is a rough fit, not a confirmed value.
# Target: Luciferin 4-monooxygenase (Photinus pyralis) (UniProt P08659)
# Test: qHTS profiling assay for firefly luciferase inhibitor/activator using purifed enzyme and Km concentrations of substrates (counterscreen for miR-21 project); further: nearly all actives have a fitted effect of over 55% in size;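 on activity change, negative = inhibition: plate controls were vehicle for no effect and reference inhibitor for full effect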
# Conditions: purified FLuc, luminescence inhibition; activity change, negative = inhibition: at 57.5 µM (top of the series)
# Method in brief: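 Biochemical qHTS of compounds, final roughly 60 µM downward over six points, against 10 nM purified firefly luciferase using Km concentrations of substrates (10 uM D-luciferin, 10 uM ATP) in Tris acetate pH 7.5 buffer; luminescence output.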
# Potency means the concentration at half of the fitted maximal effect; tags describe the fitted curve by direction and shape.
# Sequence of UniProt P08659 (P08659 whole entry, looked up): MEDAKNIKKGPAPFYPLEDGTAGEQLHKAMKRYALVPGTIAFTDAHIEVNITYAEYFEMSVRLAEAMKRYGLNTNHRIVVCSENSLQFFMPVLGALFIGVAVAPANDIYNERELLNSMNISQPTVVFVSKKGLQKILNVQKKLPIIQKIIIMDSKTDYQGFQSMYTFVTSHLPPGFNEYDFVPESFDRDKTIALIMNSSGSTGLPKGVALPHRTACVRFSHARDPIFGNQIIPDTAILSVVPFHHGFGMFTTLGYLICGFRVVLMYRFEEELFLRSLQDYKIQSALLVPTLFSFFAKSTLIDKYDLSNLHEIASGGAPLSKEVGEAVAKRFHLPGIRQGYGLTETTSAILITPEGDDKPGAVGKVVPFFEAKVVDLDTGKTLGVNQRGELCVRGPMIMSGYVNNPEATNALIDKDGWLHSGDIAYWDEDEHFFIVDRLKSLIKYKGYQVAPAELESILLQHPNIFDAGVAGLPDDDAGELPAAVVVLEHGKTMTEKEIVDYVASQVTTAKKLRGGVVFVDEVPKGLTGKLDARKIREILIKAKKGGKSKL
Structure (SMILES),Potency,"activity change, negative = inhibition"
C=CCNc1nc(C(=O)OCC(=O)c2ccc(C)c([N+](=O)[O-])c2)cs1,"inconclusive: 37.9 µM [inhibitor, partial curve, poor fit]",–
O=C(N/N=C/c1ccc(O)cc1)c1cccc(C(F)(F)F)c1,"inconclusive: 37.9 µM [inhibitor, partial curve, poor fit]",–
Cc1ccc(OCC(=O)Nc2ccc(OCc3cc(=O)n4cccc(C)c4n3)cc2)cc1C,–,inactive: -1.66%
O=S(=O)(Nc1ccc(-c2nc3cccnc3s2)cc1)c1cc(F)ccc1F,"inconclusive: 23.9 µM [inhibitor, single point]",–
CCN(C(=O)C(=O)Nc1ccc2nc3n(c(=O)c2c1)CCCCC3)c1ccc(F)cc1,–,inactive: 3.04%
COc1cc(C(=O)CC2(O)C(=O)N(Cc3ccccc3Cl)c3ccccc32)cc(OC)c1OC (stereo unspecified),–,inactive: -1.83%
Cc1ccc(O)c(N=Nc2nccs2)c1,active: 9.53 µM,–
Cc1ccc2sc(N(Cc3cccnc3)C(=O)CCOc3ccccc3)nc2c1C,–,inactive: -0.479%
O=C(CCCn1c(=S)[nH]c2ccsc2c1=O)Nc1ccc2c(c1)OCO2,"inconclusive: 26.9 µM [inhibitor, partial curve, poor fit]",–
COc1cc2ccccc2cc1C(=O)Nc1ccc(Br)cn1,"inconclusive: 2.39 µM [inhibitor, full curve]",–
Cc1ccc(Nc2ncnc3c2oc2ccccc23)cc1,active: 3.38 µM,–
O=C(NC(=S)Nc1ccccc1F)c1ccc(Br)o1,"inconclusive: 7.57 µM [inhibitor, partial curve, poor fit]",–
CCOC(=O)c1c(C)[nH]c(C(=O)OCc2ccccc2F)c1C,active: 2.69 µM,–
CCn1c(=NC(=O)c2ccc3c(c2)OCCO3)sc2c(C)ccc(OC)c21,active: 1.9 µM,–
COC(=O)C1CCN(C(=O)CCCOc2ccccc2)CC1,active: 4.78 µM,–
CCN(CC)S(=O)(=O)c1ccc(C(=O)OCC(=O)Nc2ccc(-c3nc4ccc(C)cc4s3)cc2)cc1,active: 2.69 µM,–
COc1ccc(CCNC(=O)COc2nsnc2N2CCOCC2)cc1OC,–,inactive: 1.44%
Cc1ccc(NC(=O)CSc2nc(C)c(Cc3ccccc3)c(=O)[nH]2)cc1C,"inconclusive: 5.36 µM [inhibitor, full curve] and inconclusive: 30.1 µM [inhibitor, partial curve, poor fit]",–
O=[N+]([O-])c1cccnc1Oc1ccc(OCc2ccccc2)cc1,active: 16.9 µM,–
Cc1ccc(NC(=O)Nc2ccccc2)c(Br)c1,"inconclusive: 1.69 µM [inhibitor, full curve]",–
CCOc1ccc2nc(SCCNS(=O)(=O)c3ccccc3)sc2c1,"inconclusive: 16.9 µM [inhibitor, partial curve, poor fit]",–
Cc1[nH]ccc(=O)c1Oc1ncc(C(F)(F)F)cc1Cl,–,inactive: -1.11%
CCCCc1ccc(NC(=O)Cn2nnc3sc4c(c3c2=O)CCC(C)C4)cc1 (stereo unspecified),"inconclusive: 3.01 µM [inhibitor, partial curve, poor fit]",–
O=C(CSc1n[nH]c(=O)[nH]c1=O)N/N=C/c1ccccc1O,"inconclusive: 9.53 µM [inhibitor, single point]",–

Structure (SMILES),Potency,"activity change, negative = inhibition"
COc1ccc(CCNC(=O)Cn2c(=O)n(-c3ccc(C)c(C)c3)c(=O)c3c(C)c(C)sc32)cc1OC,–,inactive: -1.56%
COc1cccc(-c2nn(C)c3sc(C(=O)NCc4ccccn4)cc23)c1,"inconclusive: 37.9 µM [inhibitor, partial curve, poor fit]",–
CCC1CCCCN1C(=O)/C=C/c1ccc2c(c1)OCO2 (stereo unspecified),"inconclusive: 26.9 µM [inhibitor, single point]",–
O=C(Nc1cccc(NC(=O)c2ccccc2Cl)c1)c1ccc(F)cc1,"inconclusive: 21.3 µM [inhibitor, partial curve]",–
CN(C)c1ccc(N=Cc2nc(-c3ccccc3)oc2OC(=O)c2ccccc2)cc1,"inconclusive: 13.5 µM [inhibitor, partial curve, poor fit]",–
COc1ccc(OC)c(C(=O)c2c(N)c(-c3nc(-c4ccc(C)c(C)c4)cs3)c3ccccn23)c1,–,inactive: 3.74%
CN(NS(=O)(=O)c1ccc(Cl)cc1)c1nc(C(F)(F)F)nc2ccccc12,"inconclusive: 26.9 µM [inhibitor, partial curve, poor fit]",–
CCc1c(C)sc(NC(=O)c2cccs2)c1C#N,active: 7.57 µM,–
C=CCn1cccc(C(=O)Nc2ccc(OC)cc2OC)c1=O,"inconclusive: 26.9 µM [inhibitor, partial curve, poor fit]",–
CCCCC(=O)Nc1cccc(-c2nc3ncccc3o2)c1C,"inconclusive: 15.1 µM [inhibitor, partial curve] and inconclusive: 26.9 µM [inhibitor, partial curve]",–
CCN(CC)CCCNC(=O)Cn1nc(C)n2c(cc3sccc32)c1=O,–,inactive: -5.45%
CC(C)(C)c1ccc(S(=O)(=O)N(CCCN2CCOCC2)Cc2cccs2)cc1,–,inactive: -9.19%
O=C1N=c2ccccc2=C1c1sc(NS(=O)(=O)c2ccccc2)nc1O,"inconclusive: 26.9 µM [inhibitor, single point]",–
Cc1nc2cc(Cl)c(Cl)cc2nc1C,"inconclusive: 26.9 µM [inhibitor, single point]",–
CC(C)Cn1c(N)c(C(=O)COC(=O)/C=C/c2cccs2)c(=O)n(C)c1=O,–,inactive: 0.52%
O=c1c2ccccc2nnn1COc1ccc(Cl)cc1Br,active: 23.9 µM,–
CC(Sc1nc(N2CCOCC2)c2c(c1C#N)CC(C)(C)OC2)C(=O)Nc1ccccc1 (stereo unspecified),–,inactive: -3.8%
O=C(Nc1nnc(-c2ccc(Cl)cc2)o1)Nc1ccccc1Cl,"inconclusive: 30.1 µM [inhibitor, partial curve, poor fit]",–
O=C(NC(=S)Nc1ccc2c(c1)OCCO2)c1ccccc1F,active: 5.36 µM,–
Cn1ncc2c(NCc3ccc(Cl)cc3)ncnc21,–,inactive: -1.27%
Cc1cc(C)c2[nH]c(=O)c(CN(Cc3ccco3)C(=O)C3CCCO3)cc2c1 (stereo unspecified),"inconclusive: 23.9 µM [inhibitor, partial curve, poor fit]",–
COc1cccc(OC)c1NC(=O)c1nc2c(nnn2Cc2ccccc2Cl)c(=O)[nH]1,"inconclusive: 37.9 µM [inhibitor, partial curve, poor fit]",–
CCOC(=O)c1c(-c2ccc(C)o2)csc1NC(=S)NC(=O)c1cccs1,"inconclusive: 12 µM [inhibitor, partial curve]",–
Oc1cc2c(cc1O)[C@H]1c3ccc(O)c(O)c3OC[C@@]1(O)C2,active: 15.1 µM,–

Structure (SMILES),Potency,"activity change, negative = inhibition"
O=C(O)c1ccc(-c2ccc(Cl)cc2Cl)o1,"inconclusive: 37.9 µM [inhibitor, single point]",–
O=C(N/N=C/c1cccs1)c1cc(-c2ccncc2)nc2ccccc12,"inconclusive: 21.3 µM [inhibitor, single point]",–
CN(C(=O)COc1ncnc2sccc12)c1ccccc1,–,inactive: -0.772%
Cc1ccccc1C(=O)Nc1ccccc1,"inconclusive: 30.1 µM [inhibitor, partial curve, poor fit]",–
N#C/C(C(=O)N1CCCCC1)=C1/N=C(N)c2ccccc21,"inconclusive: 37.9 µM [inhibitor, partial curve, poor fit]",–
Cc1nc2ccc(NC(=O)c3ccco3)cc2s1,"inconclusive: 21.3 µM [inhibitor, partial curve]",–
CN(C)C=NC(=O)c1ccc([N+](=O)[O-])c(CS(=O)(=O)c2ccc(Cl)cc2)c1,–,inactive: -1.01%
C=CCN(c1ccc(C(=O)Nc2ccc(C)c(C)c2)cc1)S(C)(=O)=O,"inconclusive: 30.1 µM [inhibitor, single point]",–
CCOc1ccccc1NC(=O)Cn1cnc2c1c(=O)n(C)c(=O)n2C,–,inactive: -0.791%
N/C(=N\OC(=O)Cc1cccs1)c1cccc([N+](=O)[O-])c1,"inconclusive: 37.9 µM [inhibitor, single point]",–
Cc1cc(O)c2c(-c3ccccc3)cc(=O)oc2c1,"inconclusive: 33.8 µM [inhibitor, partial curve, poor fit]",–
CCCCCCCCCCCCCCCC(=O)OC/C=C(C)/C=C/C=C(C)/C=C/C1=C(C)CCCC1(C)C,–,inactive: -0.543%
Cc1ccc(N(Cc2cccs2)C(=O)Nc2cccc(Cl)c2)cc1,–,inactive: -9.91%
CCOc1ccc(NC(=S)Nc2ccc3nsnc3c2)cc1,"inconclusive: 37.9 µM [inhibitor, single point]",–
COc1cccc(CNC(=O)c2sc3nc4n(c(=O)c3c2C)CCC4)c1,–,inactive: -1.69%
CC(C)(OC1OC(CO)C(O)C(O)C1O)[C@H]1Oc2ccc3ccc(=O)oc3c2[C@H]1O (stereo partly specified),–,inactive: -2.26%
CCOC(=O)C1(Cc2ccc(OC)cc2)CCN(C(=O)CCc2cnccn2)CC1,"inconclusive: 26.9 µM [inhibitor, partial curve, poor fit]",–
O=C(CN1C(=O)c2ccccc2S1(=O)=O)Nc1ncccn1,"inconclusive: 37.9 µM [inhibitor, partial curve, poor fit]",–
O=C(COC(=O)C1C2CC3OC(=O)C1C3C2)Nc1ccccc1 (stereo unspecified),"inconclusive: 26.9 µM [inhibitor, partial curve, poor fit]",–
COc1ccc(OCc2cc(C(=O)N(C)Cc3nccn3C)no2)c2ccccc12,–,inactive: 6.3%
COc1ccc(N/C=C2/CCCCC2=O)cc1,active: 15.1 µM,–
COc1cc(C2NC(=O)C(C#N)=C(S)N2c2ccc(C)cc2)ccc1OC(C)C (stereo unspecified),active: 15.1 µM,–
COc1cc(NC(=O)c2ccc(Cl)cc2)c2ncccc2c1,"inconclusive: 10.7 µM [inhibitor, partial curve]",–

# From PubChem BioAssay AID588342 (National Center for Advancing Translational Sciences (NCATS), 2011)
